# Measurements as given in article PMC4336329 (PLoS ONE, 2015).
# Hit rate of the full screen: of about 310,000 compounds, about 2,200 (0.71%) showed an effect of 50% or more. Effects have a minus sign here. This is one part of the list.
# Biological target: human ether-à-go-go-related gene (hERG) potassium channel (human, UniProt Q12809)
# Assay: primary screen, population patch clamp on CHO cells stably expressing hERG
# Sequence of human ether-à-go-go-related gene (hERG) potassium channel (Q12809 whole entry, looked up): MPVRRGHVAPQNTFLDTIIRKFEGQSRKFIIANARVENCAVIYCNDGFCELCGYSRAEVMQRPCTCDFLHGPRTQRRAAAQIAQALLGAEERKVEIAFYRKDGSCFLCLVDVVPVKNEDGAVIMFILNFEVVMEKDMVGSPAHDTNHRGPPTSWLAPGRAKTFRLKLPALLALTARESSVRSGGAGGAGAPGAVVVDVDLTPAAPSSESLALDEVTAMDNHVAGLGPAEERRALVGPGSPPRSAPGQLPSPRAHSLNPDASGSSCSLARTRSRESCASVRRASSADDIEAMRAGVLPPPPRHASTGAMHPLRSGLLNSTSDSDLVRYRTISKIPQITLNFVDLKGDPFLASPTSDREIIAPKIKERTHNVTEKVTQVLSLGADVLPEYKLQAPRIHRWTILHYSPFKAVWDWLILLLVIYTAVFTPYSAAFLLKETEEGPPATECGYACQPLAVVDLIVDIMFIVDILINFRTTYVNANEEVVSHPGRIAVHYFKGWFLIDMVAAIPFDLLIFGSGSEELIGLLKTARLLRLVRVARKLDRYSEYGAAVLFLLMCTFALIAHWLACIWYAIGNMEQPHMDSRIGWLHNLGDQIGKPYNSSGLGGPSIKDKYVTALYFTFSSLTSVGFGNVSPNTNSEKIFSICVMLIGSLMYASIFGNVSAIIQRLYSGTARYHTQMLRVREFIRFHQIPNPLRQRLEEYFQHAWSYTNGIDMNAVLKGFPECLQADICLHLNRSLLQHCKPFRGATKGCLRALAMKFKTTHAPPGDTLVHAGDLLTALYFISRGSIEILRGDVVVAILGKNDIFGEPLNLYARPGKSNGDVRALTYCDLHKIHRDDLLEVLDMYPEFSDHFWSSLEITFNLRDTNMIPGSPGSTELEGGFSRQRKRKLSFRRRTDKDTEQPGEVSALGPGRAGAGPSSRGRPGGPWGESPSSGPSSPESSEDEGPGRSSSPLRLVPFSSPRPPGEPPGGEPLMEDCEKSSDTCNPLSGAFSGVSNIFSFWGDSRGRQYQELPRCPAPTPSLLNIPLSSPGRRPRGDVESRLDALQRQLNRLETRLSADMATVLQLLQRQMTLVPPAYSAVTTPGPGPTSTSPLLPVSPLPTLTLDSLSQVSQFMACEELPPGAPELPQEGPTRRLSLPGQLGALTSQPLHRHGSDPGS
row,Structure (SMILES),"hERG current change (%, negative = inhibition) at 1uM"
1,CC1CCCC(C)N1C(=O)COC(=O)c1n[nH]c(=O)c2ccccc12 (stereo not drawn),5.87%
2,Cc1nnn(C23CC4CC(CC(CC(=O)Nc5cccc(F)c5)(C4)C2)C3)n1,-1.04%
3,Cc1cccc(NC(=O)CCN2C(=O)c3ccccc3C2=O)c1,5.06%
4,CC(Sc1ccc(Cl)cc1)C(=O)Nc1ccccc1-c1ccccc1 (stereo not drawn),17.4%
5,Cc1csc2c(N3CCN(S(=O)(=O)c4ccc(Cl)cc4)CC3)ncnc12,9.13%
6,COc1cccc(CNC(=O)C2CCN(S(=O)(=O)N3CCC4(CC3)OCCO4)CC2)c1,7.66%
7,CC(C)c1onc(C(=O)NCc2ccccc2)c1[N+](=O)[O-],12.1%
8,COc1ccc(C(=O)COC(=O)c2cnc(C)cn2)c(OC)c1,-23.5%
9,O=[N+]([O-])c1cccc(S(=O)(=O)N/N=C\c2ccc3c(c2)OCO3)c1,2.95%
10,Cc1ccccc1-n1c(-c2ccoc2C)n[nH]c1=S,12%
11,CNCCCCOc1ccc(C(C)(C)C)cc1Cl.O=C(O)C(=O)O,10.5%
12,CC1C[C@@]2(NC(=O)NC2=O)C(C)CN1C (stereo partly drawn),14.9%
13,OCCN(Cc1ccccc1)C(=S)NC1CCCCC1,13.2%
14,CC1(C)CC(=O)C(C=Nc2ccc(C(=O)c3ccccc3)cc2N=CC2=C(O)CC(C)(C)CC2=O)=C(O)C1,8.62%
15,N[C@@H](Cc1ccccc1)C(=O)N1CCC(C(=O)NCC(=O)Nc2ccc(F)cc2)CC1,8.41%
16,CCCNC(=O)C1CC(=O)N(c2ccc(OCc3ccc(Cl)cc3)cc2)C1 (stereo not drawn),13.3%
17,COC(=O)C1=C(C)Nc2nnnn2C1c1cccnc1 (stereo not drawn),13.1%
18,CSc1nnc(-c2cc(C)on2)n1-c1ccccc1,7.24%
19,Nc1ncnc2c1c(-c1ccc(Oc3ccccc3)cc1)cn2C1CCCC1,11.9%
20,O=C(O)c1ccccc1NS(=O)(=O)c1cccc(-n2sc3ccccc3c2=O)c1,12.2%
21,Cc1ccsc1C(=O)N1CCCC(CO)(Cc2ccccc2)C1 (stereo not drawn),9.83%
22,Cc1cc(C(=O)NCC23CC4CC(CC(C4)C2)C3)c(C)o1,2.47%
23,CC(C)c1nn2c(N)c(/C=C3\C=Nc4ccccc43)c(=O)nc2s1,14.2%

row,Structure (SMILES),"hERG current change (%, negative = inhibition) at 1uM"
1,CCOC(=O)NC1C=CS(=O)(=O)C1 (stereo not drawn),13.4%
2,O=S(=O)(NC1CCCCC1)c1ccc(F)c2ccccc12,17.5%
3,Nc1c(C(=O)OCC2CCCO2)c2nc3ccccc3nc2n1Cc1cccs1 (stereo not drawn),-1.08%
4,COc1ccccc1-c1cc(C2CC2)nc(N)c1C#N,-5.25%
5,CC1CCCCN1C(=O)c1cc2c(=O)n3ccccc3nc2s1 (stereo not drawn),2.7%
6,CN(C)CCCN(C(=O)c1cc(-c2cccs2)nc2ccccc12)c1nc2ccc(F)cc2s1.Cl,13.3%
7,CCOc1ccc(-c2cccc(NC(=O)c3ccco3)c2)nn1,7.43%
8,COC(=O)CSc1nnc(-c2sc3cc(OC)ccc3c2Cl)n1C,4.01%
9,COC(=O)c1cc(NC2c3ccccc3C(=O)N2Cc2ccco2)cc(C(=O)OC)c1 (stereo not drawn),5.13%
10,Cc1ccc(-c2n[nH]c(=S)n2/N=C/c2cccs2)cc1,16.1%
11,O=C(Nc1nc(-c2ccc(F)cc2)cs1)c1cccnc1,17%
12,COCCCNC(NC(=O)c1ccc(Br)cc1)C(Cl)(Cl)Cl (stereo not drawn),-1.42%
13,CCN1C(=O)CSc2ccc(C(=O)NCc3ccccc3)cc21,14.3%
14,Cc1cc(N2CCOCC2)cc(C)[n+]1[O-],-7.5%
15,CC1=C(C)CC(C(=O)Nc2ccc(C(N)=O)cc2)C(C(=O)O)C1 (stereo not drawn),16.6%
16,O=C(Nc1ccccc1OC(F)F)c1ccc(Br)o1,-5.32%
17,CCCOc1ccc(/C=C/C(=O)N2CCN(c3ccccn3)CC2)cc1,9.63%
18,Cc1ccc(OCCCCn2ccnc2)c([N+](=O)[O-])c1,-24.5%
19,COc1ccc(NC(=O)Cn2c(-c3ccccc3)cc(C(C)=O)c2C)c(OC)c1,-2.57%
20,Cc1ccc2oc(C(=O)NCC(c3ccco3)N3CCCC3)c(C)c2c1 (stereo not drawn),0.0217%
21,CC1CC(Nc2ccccc2)=NC1(C)C (stereo not drawn),18.4%
22,O=C1OC(Nc2ccc(Cl)cn2)c2ccccc21 (stereo not drawn),2.2%
